Results taken from PubChem BioAssay AID686979 (National Center for Advancing Translational Sciences (NCATS), 2013).
Where “and” joins values, the source holds several entries; their conditions need not be identical. Identical values can stand only once. Hit rate of the full screen: of about 420,000 compounds, about 50,000 (12%) were called active. The shares of active, inactive and inconclusive entries below differ from those in the screen. Calls follow the shape of the dose curve; as a rule, active = well fitted inhibition curve with a large enough effect; inconclusive = small, poorly fitted or top-dose-only effect; inactive = flat fitted curve, though single readings scatter. No potency is given beside an inconclusive call; the fits are too rough.

Assay: qHTS for Inhibitors of human tyrosyl-DNA phosphodiesterase 1 (TDP1): qHTS in cells in presence of CPT; also: nearly all actives have a fitted effect of over 55% in size
Conditions: chicken DT40 Tdp1-/-;hTDP1 cells + 20 nM CPT, ATP luminescence, 48 h; activity change, negative = growth inhibition: at 46.2 µM (top of the series)
How it was run: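 Chicken DT40 Tdp1-/- cells complemented with human TDP1, 400 cells/well, exposed to compounds plus 20 nM camptothecin for at least 48 h at 37 C; viability read as ATP content by CellTiter-Glo luminescence.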
% is scaled to controls: 0 for no effect and ±100 for the full control effect; potency is read from the fitted curve at half-maximal effect; tags tell the direction and shape of the fitted curve.

Structure (SMILES) | Potency | activity change, negative = growth inhibition
COc1ccc(CCn2c(C(C)C)nc3c(c(=O)c4ccccc4n3C)c2=O)cc1 | active: 16.4 µM | –
CC(OC(=O)CCCNC(=O)c1ccc(Cl)cc1)C(=O)N(C)Cc1ccccc1 (stereo not given) | inconclusive [inhibitor, single point] | –
Cc1cccc(-c2ncc(CN3CCN(CCC(C)C)C(CCO)C3)cn2)c1 (stereo not given) | inactive | –
CCOc1ccc(-c2nc(N)ncc2-c2ccccc2OC)c(O)c1 | active: 20.6 µM | –
CCOc1ccc(NS(=O)(=O)c2coc(C(N)=O)c2)cc1 | inactive | –
Cc1ccc(C2C3=C(CC(C)(C)CC3=O)NC3=C2C(=O)c2ccccc23)cc1 (stereo not given) | active: 20.6 µM | –
CCOc1ccc(CNC(=O)C2CCN(S(=O)(=O)c3ccc4c(ccn4C)c3)CC2)cc1 | inconclusive [inhibitor, single point] | –
COc1ccc(CCn2c(SCCN3CCCCC3)nc3ccccc3c2=O)cc1OC | inconclusive [inhibitor, single point] | –
COc1ccc(C(=O)Nc2ccccc2C(=O)N2CCCCCC2)cc1OC | inactive | –
COc1ccc(C2c3ccc(O)cc3Oc3ncn(CC(C)C)c(=N)c32)cc1 (stereo not given) | inconclusive [inhibitor, single point] | –
Cc1ccc(Nc2cc(-n3cccn3)ncn2)c(C)c1 | inconclusive [inhibitor, single point] | –
O=C(c1csnn1)N1CCC2(CC1)CCN(c1ncccn1)CC2 | inactive | –
O=C(N/N=C\c1ccc2c(c1)OCO2)c1ccco1 | inconclusive [inhibitor, single point] | –
O=C(c1cccnc1Cl)N1CCOCC1 | – | inconclusive: -31% [inhibitor]
O=[N+]([O-])c1cccc(/C=N/Nc2nc(NCc3ccccc3)nc(N3CCOCC3)n2)c1O | active: 13 µM | –
COc1cc(Cn2c3ccc(NC(=O)NCCc4ccccc4)cc3c(=O)n2C)ccc1F | inconclusive [inhibitor, single point] | –
COc1ccc(N(C)C(=O)c2nc(-c3cccc(F)c3)n3c2CCCCC3)c(OC)c1 | inconclusive [inhibitor, single point] | –
Cc1c(Cl)cccc1NC(=O)c1cc2sccc2n1Cc1ccc(F)cc1 | inconclusive [inhibitor, single point] | –
CC(C)Cn1c(N)c(C(=O)CSc2nc3ncc(Cl)cc3[nH]2)c(=O)n(C)c1=O | inconclusive [inhibitor, single point] | –
O=C(COc1ccc(Cl)cc1Cl)N1CCCN(C(=O)COc2ccc(Cl)cc2Cl)CC1 | inconclusive [inhibitor, partial curve] | –
COc1ccc(C(CC(=O)c2ccccc2)S(=O)(=O)c2ccc(C)cc2)cc1 (stereo not given) | inconclusive [inhibitor, single point] | –
Cc1ccccc1NC(=O)CSc1cn(CC(=O)N2CCCC2)c2ccccc12 | – | inconclusive: -30.3% [inhibitor]
CCCCOc1ccc(C(O)C(CN2CCOCC2)c2ccccc2)cc1 (stereo not given) | inactive | –
COC(=O)COC(=O)CC(CC(N)=O)c1ccccc1 (stereo not given) | inactive | –

Structure (SMILES) | Potency | activity change, negative = growth inhibition
Cc1ccc(S(=O)(=O)N2CCc3cc(C(=O)NCCc4ccccc4)ccc32)cc1 | inconclusive [inhibitor, partial curve] | –
O=C(Cc1ccsc1)NNC(=O)c1ccccc1Cl | inactive | –
Cc1c(-c2cccc(NC(=O)Nc3ccccc3)c2)nc2ncccn12 | inconclusive [inhibitor, single point] | –
Cc1cc2nc(C)n(CCCNC(=O)Nc3ccc(C#N)cc3)c2cc1C | inconclusive [inhibitor, partial curve] | –
Oc1ccccc1/C=N/NC(=S)NC1CC2CCC1C2 (stereo not given) | inconclusive [inhibitor, single point] | –
Cc1ccc(-c2cc(-c3coc4ccccc4c3=O)c3c(n2)-c2ccccc2OC3)cc1 | inconclusive [inhibitor, partial curve] | –
CC1CCCCC1NC(=O)c1nnc(Cc2ccc(Cl)cc2)o1 (stereo not given) | – | inconclusive: -33.1% [inhibitor]
COc1ccc(NC(=O)Nc2cc(C)ccc2F)cc1OC | inactive | –
CN=c1scc(-c2ccccc2F)n1/N=C(\C)c1cccnc1 | inconclusive [inhibitor, single point] | –
Oc1ccc(Cl)cc1CNCc1ccc(C(F)(F)F)cc1 | inconclusive [inhibitor, partial curve] | –
CC[C@]12c3[nH]c4ccc(OC)cc4c3CCN1C(=O)C(CC(=O)NCCCOC)C[C@@H]2C(=O)N1CCN(C(=O)C2CC2)CC1 (stereo not given in full) | inconclusive [inhibitor, full curve, poor fit] | –
CC(=C/c1ccc(C(C)C)cc1)/C=N/NC(=O)CSc1ccccn1 | inconclusive [inhibitor, single point] | –
O=C(CCCN1C(=O)/C(=C/c2ccco2)SC1=S)Nc1ccccc1 | inconclusive [inhibitor, single point] | –
CCS(=O)(=O)N1CCC2(CC1)OC(=O)C(C)=C2C(=O)NCc1ccccc1C | inconclusive [inhibitor, single point] | –
CC(C)(C)OC(=O)CNC(=O)c1nc[nH]c1C(=O)NCc1ccc(CNC(=O)OC(C)(C)C)cc1 | active: 18.4 µM | –
COc1ccc(/C=N/NC(=O)c2cc3cc(OC)c(OC)cc3[nH]2)cc1 | inconclusive [inhibitor, single point] | –
Nc1nonc1-n1nnc(C(=O)N/N=C/c2ccccc2)c1CN1CCc2ccccc21 | – | inconclusive: -32.2% [inhibitor]
COc1cc(/C=N/NC(=O)c2nnn(-c3nonc3N)c2C)ccc1OCc1ccc(Cl)cc1 | inconclusive [inhibitor, single point] | –
CC(OC(=O)c1ccccc1Br)C(=O)Nc1nc(-c2cccc([N+](=O)[O-])c2)cs1 (stereo not given) | inconclusive [inhibitor, single point] | –
Cc1cccc(CNc2cc(-c3ccccc3C)ncn2)c1 | active: 14.6 µM | –
CCOc1ccc(/C=N/NC(=O)c2csc(C)c2C)c(OCC)c1 | inactive | –
CCOc1ccc(C(=O)Nc2ccc(NC(=O)c3ccco3)c(Cl)c2)cc1Cl | inconclusive [inhibitor, partial curve] | –
COc1ccc(-c2cc(=O)c3c(OC)c(OC)c(OC)c(OC)c3o2)cc1OC | active: 10.3 µM and active: 20.6 µM | –
CCOc1ccc(-c2ncncc2-c2ccccc2OC)c(O)c1 | active: 13 µM | –

Structure (SMILES) | Potency | activity change, negative = growth inhibition
CCOC(=O)C1CCCN(S(=O)(=O)CCNC(=O)c2cccc(OC)c2)C1 (stereo not given) | inactive | –
COC(=O)CC1=C(C(=O)OC)C(c2ccncc2)C(C#N)=C(N)O1 (stereo not given) | inconclusive [inhibitor, single point] | –
CCCN(CC(=O)Nc1ccccc1OC)C(C)C(=O)NC(C)CCc1ccccc1 (stereo not given) | inconclusive [inhibitor, single point] | –
COc1ccc(C(=O)N(NC(=O)Oc2ccccc2)C(C)(C)C)cc1 | inactive | –
CN(CCO)C(=O)c1cn(C2CCCN(Cc3cc4ccccc4s3)C2)nn1 (stereo not given) | inactive | –
Cc1cc(C)cc(OCC(=O)N/N=C/c2ccc([N+](=O)[O-])o2)c1 | inactive | –
CC(=O)Nc1ccc2sccc2c1 | inactive | –
CC(C)Cc1ccc(CN2CCCC(NC(=O)c3cccc(-n4cnnc4)c3)C2)cc1 (stereo not given) | active: 20.6 µM | –
COc1cc2c(C(=O)N3CCOCC3)c(CSc3ccccc3)n(C)c2cc1Br | inconclusive [inhibitor, single point] | –
CN(CC(=O)Nc1ccc(Cl)c(C(F)(F)F)c1)C(=O)CCN1C(=O)C2CCCCC2C1=O (stereo not given) | active: 23.1 µM | –
O=C(NC12CC3CC(CC(C3)C1)C2)c1ccc(COc2ccc(Cl)cc2[N+](=O)[O-])o1 | inconclusive [inhibitor, single point] | –
CSc1nc(N(C)C)nc(N(C#N)CCOC(C)=O)n1 | inconclusive [inhibitor, single point] | –
CC(=O)N1c2ccc(S(=O)(=O)NCC3CCC(C(=O)N(C)Cc4ccccc4)CC3)cc2CC1C (stereo not given) | inconclusive [inhibitor, single point] | –
COc1cccc(Cn2c(=O)cc(C)c3c(C)nn(-c4ccc(C)cc4)c32)c1 | active: 20.6 µM | –
N#Cc1ccc(COC(=O)c2ccc3c(c2)OCO3)cc1 | inactive | –
Cc1ccc([C@H]2C(C(=O)O)=CC[C@@H](c3ccc(C)cc3)N2S(=O)(=O)c2ccccc2C)cc1 | inconclusive [inhibitor, partial curve, poor fit] | –
O=C(NC1CCCc2ccccc21)C1CCN(S(=O)(=O)N2CCCCCC2)CC1 (stereo not given) | active: 13 µM | –
O=C(OCc1ccccc1)N1CCC2CC1c1ccc(-c3cccc(F)c3)cc12 (stereo not given) | inconclusive [inhibitor, single point] | –
Cc1ccc(S(=O)(=O)n2nc(-c3ccccc3)nc2NCc2ccccc2Cl)cc1 | inconclusive [inhibitor, single point] | –
COc1ccc(NC(=S)NC(=O)c2cccnc2)cc1 | inactive | –
Cc1cc2oc(=O)c(CC(=O)NCCCN(C)C)c(C)c2c2occ(C(C)(C)C)c12 | inconclusive [inhibitor, single point] | –
O=C(Nc1ccc(F)c(Cl)c1)c1cc(C2CCCN(C(=O)c3cccs3)C2)on1 (stereo not given) | inconclusive [inhibitor, single point] | –
